Entries after “also recorded” stand apart in the source; their conditions may differ.
Columns and labels:
[1] = target: T1, PICK1 (Rattus norvegicus, UniProt Q9EP80); experiment: Size exclusion chromatography of PICK1 incubated with peptide (induction of tetrameric/higher oligomers of PICK1); assay type: biochemical; settings: PICK1 40 μM; for induction of tetrameric configuration of PICK1 (SEC): peptide 10 μM (4:1); for oligomerization of PICK1 (SEC): Example 9
T1 construct: GST (inferred from the pGEX4T2 vector and glutathione-Sepharose capture) (N, cleaved yes); made in house; host or cells: E. coli BL21-DE3-pLysS
T1 sequence (Q9EP80 whole entry): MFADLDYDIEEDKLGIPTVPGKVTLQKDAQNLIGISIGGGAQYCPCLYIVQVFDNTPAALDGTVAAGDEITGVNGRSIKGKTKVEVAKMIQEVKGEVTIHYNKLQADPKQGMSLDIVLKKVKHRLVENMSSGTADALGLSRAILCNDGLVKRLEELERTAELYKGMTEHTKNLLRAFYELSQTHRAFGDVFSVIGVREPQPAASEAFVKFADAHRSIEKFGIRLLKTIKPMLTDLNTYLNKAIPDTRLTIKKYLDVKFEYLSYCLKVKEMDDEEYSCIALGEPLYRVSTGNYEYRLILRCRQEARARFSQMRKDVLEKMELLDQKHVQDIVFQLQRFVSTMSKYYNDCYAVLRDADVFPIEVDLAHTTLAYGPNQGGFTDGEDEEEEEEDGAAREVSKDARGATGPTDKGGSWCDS
Method: Protein expression was induced with 10 mM Isopropyl β-D-1-thiogalactopyranoside (IPTG) and grown overnight at 20° C. […] 1 L culture. Resuspended pellet was frozen at −80° C. to induce cell lysis. The bacterial suspension was thawed and cleared by centrifugation.

[2] = Size exclusion chromatography of synthetic peptides alone (oligomeric assembly); assay type: physicochemical; settings: N-terminal Biotin and Ahx linker, Superdex200 Increase 10/300
[3] = target: T1, PICK1; experiment: Fluorescence polarization competition binding to PICK1, 5FAM DAT C5 tracer
Method: Fluorescence polarization was carried out in saturation mode and competition mode.

[4] = Circular dichroism; assay type: physicochemical; settings: 8 μM peptide, 50 mM NaPi pH 8, 25° C.
[5] = peptide 20 μM or 400 μM (2:1 and 1:10 PICK1:peptide)

Row | Substance | induction of tetrameric configuration of PICK1 (SEC) [1] | oligomerization of PICK1 (SEC) [1, 5] | oligomerization of PICK1 (SEC) ([1]; peptide 400 μM) | oligomeric assembly of the peptide (SEC elution) [2] | binding to PICK1 [3] | secondary structure by circular dichroism [4]
1 | RMKQLEDKVEELLSKNYHLENEVARLKKLV-GGGGS-HWLKD (RMKQLEDKVEELLSKNYHLENEVARLKKLVGGGGSHWLKD; GCN4-GS4-V-to-D) | eluted exclusively in the dimeric peak of PICK1; also recorded: did not cause the shift in PICK1 elution | did not cause PICK1 to oligomerize even at higher concentration | did not cause PICK1 to oligomerize | eluted as a homodimer; also recorded: intact dimer formation | did not show any binding up to 100 μM; also recorded: no binding to PICK1 | 
2 | RMKQLEPKVEELLPKNYHLENEVARLKKLV-GGGGS-HWLKV (RMKQLEPKVEELLPKNYHLENEVARLKKLVGGGGSHWLKV; N-terminal biotin and Ahx linker; GCN4p1(7P14P)-GS4-DATC5) [GCN4-GS4-7P14P, variant with Proline in position 7 and 14; tested with N-terminal Biotin and Ahx linker] | eluted in the dimeric peak of PICK1; also recorded: not capable of inducing tetramer formation of PICK1 | did not cause PICK1 to oligomerize even at higher concentration | also eluted at 11.7 ml | partly shifted to elution at 19.7 ml corresponding to a monomer; also recorded: mixture of dimers and monomers |  | random coil

— US20220033450A1, “VIRALLY EXPRESSED INHIBITORS OF PDZ DOMAINS, SUCH AS PICK1 AND USES THEREOF” (University of Copenhagen, priority 2018, published 2022)
